The record followed here is paper PMC8594881 (ACS catalysis, 2021).

The assay addresses T1, epi-isozizaene synthase (EIZS) (Streptomyces coelicolor, UniProt Q9K499).
T1 sequence (Q9K499 1-361): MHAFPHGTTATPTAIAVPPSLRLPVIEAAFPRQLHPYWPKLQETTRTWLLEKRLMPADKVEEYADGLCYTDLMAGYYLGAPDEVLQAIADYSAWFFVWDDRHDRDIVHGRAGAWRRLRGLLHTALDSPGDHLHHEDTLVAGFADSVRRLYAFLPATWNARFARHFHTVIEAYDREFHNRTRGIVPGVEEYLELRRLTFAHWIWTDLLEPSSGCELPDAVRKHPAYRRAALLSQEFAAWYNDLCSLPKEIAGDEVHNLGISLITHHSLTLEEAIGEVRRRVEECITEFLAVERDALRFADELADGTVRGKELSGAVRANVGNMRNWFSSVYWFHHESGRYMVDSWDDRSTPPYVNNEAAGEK
In words: HPLC product analysis at […] nm. Type of assay: biochemical. The settings on record: minor activity.

As to `CC(C)=CCOP(=O)(O)OP(=O)(O)O` [DMAPP], where the note is “prenyl donor with indole”, the “HPLC product analysis at 280 nm” value was “Both LS and EIZS showed minor prenylation activity with DMAPP”. For `c1ccc2[nH]ccc2c1` [indole], the “HPLC product analysis at 280 nm” value (prenyl acceptor with DMAPP) was “Both LS and EIZS showed minor prenylation activity with DMAPP”.
